{
  "source": "PubChem BioAssay AID411",
  "about": "(National Center for Advancing Translational Sciences (NCATS), 2006)",
  "target": "Luciferin 4-monooxygenase (Photinus pyralis) (UniProt P08659)",
  "sequence (P08659 whole entry, looked up)": "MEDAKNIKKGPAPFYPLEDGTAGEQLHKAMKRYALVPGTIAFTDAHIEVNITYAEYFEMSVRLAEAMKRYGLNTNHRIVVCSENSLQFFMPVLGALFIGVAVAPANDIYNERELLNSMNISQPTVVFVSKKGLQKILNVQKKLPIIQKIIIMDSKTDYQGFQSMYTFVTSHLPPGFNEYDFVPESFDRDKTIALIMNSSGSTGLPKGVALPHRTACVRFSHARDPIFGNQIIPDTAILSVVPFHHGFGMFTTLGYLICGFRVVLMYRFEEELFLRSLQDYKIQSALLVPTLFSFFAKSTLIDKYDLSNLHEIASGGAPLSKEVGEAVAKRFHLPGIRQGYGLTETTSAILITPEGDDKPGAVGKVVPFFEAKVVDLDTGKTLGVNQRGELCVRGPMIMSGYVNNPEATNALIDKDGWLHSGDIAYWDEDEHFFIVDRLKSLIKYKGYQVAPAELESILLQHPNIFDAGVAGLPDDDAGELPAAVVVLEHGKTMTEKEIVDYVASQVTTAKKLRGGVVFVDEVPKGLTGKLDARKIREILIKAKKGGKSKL",
  "assay": "qHTS Assay for Inhibitors of Firefly Luciferase; note: nearly all actives have a fitted effect of over 40% in size",
  "conditions": "purified firefly luciferase, luminescence, 8 min",
  "description": "To aid in the interpretation of high-throughput screening (HTS) results derived from luciferase-based assays, we used quantitative HTS, an approach that defines the concentration-response behavior of each library sample, to profile the ATP-dependent luciferase from Photinus pyralis against more than 72 000 samples. Luciferase (PKLight, Cambrex Corporation) was assayed for its ability to generate light using ATP and luciferin as substrates. The ATP concentration in the assay (10 uM) was within the linear range of enzyme activity for the assay conditions used. See following reference for further details: [1] Auld DS, Southall NT, Jadhav A, Johnson RL, Diller DJ, Simeonov A, Austin CP, Inglese J. Characterization of chemical libraries for luciferase inhibitory activity. J Med Chem. 2008 Apr 24;51(8):2372-86. Auld DS, Zhang YQ, Southall NT, Rai G, Landsman M, Maclure J, Langevin D, Thomas CJ, Austin CP, Inglese J. A Basis for Reduced Chemical Library Inhibition of Firefly Luciferase Obtained from Directed Evolution. J. Med. Chem., 2009, 52 (5), pp 1450#1458 [3] Auld DS, Thorne N, Nguyen DT, Inglese J. A specific mechanism for nonspecific activation in reporter-gene assays. ACS Chem Biol. 2008 Aug 15;3(8):463-70. Auld DS, Thorne N, Maguire WF, Inglese J. Mechanism of PTC124 activity in cell-based luciferase assays of nonsense codon suppression. Proc Natl Acad Sci U S A. 2009 Mar 3;106(9):3585-90. Inglese J, Auld DS, Jadhav A, Johnson RL, Simeonov A, Yasgar A, Zheng W, Austin CP. Quantitative high-throughput screening: a titration-based approach that efficiently identifies biological activities in large chemical libraries. Proc Natl Acad Sci U S A. 2006 Aug 1;103(31):11473-8.\nFour uL of substrate mix (final concentration, 50 mM imidazole pH 7.2, 50 mM KCl, 7 mM MgCl2, 10 uM ATP, 0.01% Tween 20, 0.05% BSA) was dispensed into white 1536 well plates. Twenty-three nL of compound was delivered by a pin tool and 2 uL of luciferase detector mix (PKLight, Cambrex) was added. Following 8-minute incubation at ambient temperature, luminescence was measured by a ViewLux (Perkin Elmer) at 5 seconds exposure/plate.",
  "note": "Where “and” joins values, the source holds several entries; their conditions need not be identical. Equal values may be shown once. The whole screen tested about 72,000 compounds, of which about 1,600 (2.2%) were called active. Calls come from the whole dose curve; as a rule, active = well fitted inhibition curve with a large enough effect; inconclusive = small, poorly fitted or top-dose-only effect; inactive = flat fitted curve, though single readings scatter. The entries are a selection whose mix differs from that of the whole data set. % is set by controls: 0 for no effect and ±100 for the full control effect.",
  "data": [
    {"smiles": "CCCN1CCO[C@@H]2c3cc(O)ccc3OC[C@H]21", "values": [
      {"measurement": "activity change, negative = inhibition", "setting": "at 57.1 µM (top of the series)", "result": "inactive: 1.22% and inactive: 0.504%"}
    ]},
    {"smiles": "O[C@H]1CCCC[C@H]1N1CCC(c2ccccc2)CC1", "values": [
      {"measurement": "activity change, negative = inhibition", "setting": "at 25.5 µM (top of the series)", "result": "inactive: 4.99%"},
      {"measurement": "activity change, negative = inhibition", "setting": "at 57.1 µM (top of the series)", "result": "inactive: 0.481%"}
    ]},
    {"smiles": "O[C@@H]1CCCC[C@H]1N1CCC(c2ccccc2)CC1", "values": [
      {"measurement": "activity change, negative = inhibition", "setting": "at 57.1 µM (top of the series)", "result": "inactive: 1.11%"}
    ]}
  ]
}
